Assay results published in ChEMBL document CHEMBL4888484, “Replenishing the malaria drug discovery pipeline: Screening and hit evaluation of the MMV Hit Generation Library 1 (HGL1) against asexual blood stage Plasmodium falciparum ,using a nano luciferase reporter read-out” (2022).
In all, about 150,000 compounds went through this assay and about 540 (0.36%) showed an effect of 50% or more. The list shows a part of the results.

System: Plasmodium falciparum
Assay: Primary screen in NF54 nanoGlo assay, in single point, at 2uM, 72h; a lower Z score goes with more inhibition
Type: functional, Erythrocyte
Details: timepoint 72 hour

| Compound | % Inhibition [%] | Z score |
| --- | --- | --- |
| N[C@@H](CC1CCCCC1)C(=O)N1CCCn2cncc2C1 | 1 | -0.18 |
| CS(=O)(=O)N1CCN(c2ccc(N3CCOCC3)nn2)CC1 | -13 | 2.07 |
| CCCCN(C)C[C@@H]1OC[C@H](NC(=O)c2ccccc2)[C@H]1O | 2 | -0.39 |
| C#CC[C@H](C)OC(=O)c1c(C)nn(C)c1OC | 3 | -0.46 |
| Cc1ccc(CNC(=O)[C@H]2CCCN(c3ccnc(-c4ccc(C)cc4)n3)C2)cc1 | -10 | 1.15 |
| OC[C@@]1(CCc2ccccc2)CCCN(Cc2nc3ccccc3[nH]2)C1 | -10 | 1.26 |
| Cc1ccc(-c2nc3cccnc3s2)cc1NC(=O)CCCc1ccccc1 | -8 | 1.62 |
| COCCn1nc(C(=O)NCc2cc(C)nn2C)c2c1CCOC2 | 7 | -1.03 |
| COCc1nc([C@H]2C[C@H](NC(=O)c3c[nH]c(=O)c(Cl)c3)C2)cc(=O)[nH]1 | -9 | 1.51 |
| CC(C)c1nccc(N2CCOC[C@@H](C3CCC3)C2)n1 | -14 | 1.86 |
| COc1ccc(C(=O)NC2CCN(Cc3ccccc3)CC2)cc1S(=O)(=O)N1CC(C)CC(C)C1 (stereo unspecified) | 11 | -0.94 |
| Cc1nnccc1NC(=O)NCC1(C)CCCC1 | -18 | 2.8 |
| COc1c(F)c(F)c(S(=O)(=O)Nc2cccc3c2CCCC3)c(F)c1F | 2 | -0.38 |
| O=C(O)Cc1csc(Nc2cccc3ncccc23)n1 | 9 | -1.36 |
| CCCS(=O)(=O)NC[C@H](C)N1CCC(CC)(CC)C1 | -10 | 1.8 |
| Cc1ccc(NS(=O)(=O)c2cc3n(c2)CCCNC3=O)c(F)c1 | -22 | 2.62 |
| CN1CCCC(CNC(=O)CCC2CCCOC2)C1c1ccccc1 (stereo unspecified) | -1 | 0.12 |
| COc1ccc([C@@H]2Cn3cc(C(=O)NCCCN4CCOCC4)nc3C(=O)N2)cc1 | -11 | 1.52 |
| C[C@H]1CCCCN1CCCNC(=O)CCc1nnc(C(=O)Nc2ccc(F)cc2)s1 | -16 | 3.06 |
| CC(C)n1c(=O)[nH]c2ccc(C(=O)N3CCC34CCN(C)CC4)cc21 | -11 | 1.5 |
| O=C(NCc1ccc[nH]c1=O)c1cccc2c1CCCN2 | 1 | -0.27 |
| COC[C@@H]1CCC[C@@H]1NC(=O)Nc1ccc(F)cc1Cl | 5 | -0.96 |

| Compound | % Inhibition [%] | Z score |
| --- | --- | --- |
| CCC(CC)n1ccc(Cn2cc(CN3CCOC[C@H]3C)nn2)n1 | -11 | 1.74 |
| O=S(=O)(Nc1ncn(-c2ccccc2)n1)c1ccnn1C1CCC1 | -10 | 1.64 |
| Cc1ccc2nc(Cn3cc(-c4nc(C)n5ccccc45)nn3)cn2c1 | -19 | 3.64 |
| N#Cc1ccc(NCCCC(F)(F)F)cc1 | 0 | -0.02 |
| COc1cccc(C(=O)N2CCNC[C@H]2C(=O)N2CCN(C)CC2)c1C | -5 | 0.73 |
| Cc1cc(NC(=O)Cn2ccc(-c3scnc3C)n2)n(C2CCCCC2)n1 | -1 | 0.09 |
| C[C@H]1CCCN(C(=O)CNc2cccc3ccccc23)C1 | -5 | 0.68 |
| O=C(c1cccnc1)N1C[C@@H]2C[C@@H](O)CN2C2(CN(Cc3ccc(F)cc3)C2)C1 | -1 | 0.06 |
| c1cc(N2CCCCC2)ncc1-c1nc2c([nH]1)CCNC2 | 5 | -0.94 |
| CCc1cc2c(N3CCCN(CC(N)=O)CC3)ncnc2s1 | 1 | -0.09 |
| Cc1cccc2c1OCC[C@@H]2NC(=O)Nc1nnc(-c2ccsc2)s1 | 0 | 0.03 |
| CCNC(=O)c1ccc(COc2ccc3c(c2)[C@H](c2ccc(F)cc2)N(C(=O)C2CCCC2)CC3)o1 | 9 | -0.99 |
| COc1ccc(C)cc1NC(=O)CNC(=O)COC(=O)COc1ccc2ccccc2c1 | -4 | 0.62 |
| Cc1c(-c2ccc(Cl)cc2)nnn1C[C@@H](O)Cn1cccn1 | -15 | 2 |
| CCC(C)n1nc(C(=O)NCC2CCCOC2C(C)C)cc1C (stereo unspecified) | 3 | -0.36 |
| OC[C@H]1CN(c2ncc(Cl)cc2C(F)(F)F)C[C@H]1CN1CCCCC1 | -9 | 0.85 |
| CCc1ccc(CCCN(C)Cc2cccnc2)cc1 | -9 | 1.18 |
| CC1CCOC1C(=O)Nc1cnns1 (stereo unspecified) | -5 | 0.94 |
| COC[C@H]1CCCN(c2nc(C)cc(C#N)n2)CC1 | 24 | -2.75 |
| CCn1cc(C(=O)C(=O)N(C[C@H]2CCCO2)C2CCC(C)CC2)cn1 (stereo partly specified) | -7 | 0.6 |
| O=C([C@@H]1CCCN1C(=O)c1cccs1)N1CCCCCCC1 | -2 | 0.16 |
